PubChem BioAssay AID360 (National Center for Advancing Translational Sciences (NCATS), 2006)
About 550 (1.1%) of roughly 48,000 compounds were called active. Another 4% or so got no clear call; they are omitted. No stated cut-off is given here; in the data, active means potency below about 15 µM; inconclusive means mostly about 16 µM to 33 µM; inactive means weaker than that. Some of the results follow.

target: Lysosomal acid glucosylceramidase (Homo sapiens) (UniProt P04062); test: Glucocerebrosidase; conditions: purified enzyme, resorufin glucoside fluorescence (screen aimed at inhibitors), 20 min;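 further: the screen sought inhibitors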
UniProt P04062, sequence (P04062 whole entry, looked up): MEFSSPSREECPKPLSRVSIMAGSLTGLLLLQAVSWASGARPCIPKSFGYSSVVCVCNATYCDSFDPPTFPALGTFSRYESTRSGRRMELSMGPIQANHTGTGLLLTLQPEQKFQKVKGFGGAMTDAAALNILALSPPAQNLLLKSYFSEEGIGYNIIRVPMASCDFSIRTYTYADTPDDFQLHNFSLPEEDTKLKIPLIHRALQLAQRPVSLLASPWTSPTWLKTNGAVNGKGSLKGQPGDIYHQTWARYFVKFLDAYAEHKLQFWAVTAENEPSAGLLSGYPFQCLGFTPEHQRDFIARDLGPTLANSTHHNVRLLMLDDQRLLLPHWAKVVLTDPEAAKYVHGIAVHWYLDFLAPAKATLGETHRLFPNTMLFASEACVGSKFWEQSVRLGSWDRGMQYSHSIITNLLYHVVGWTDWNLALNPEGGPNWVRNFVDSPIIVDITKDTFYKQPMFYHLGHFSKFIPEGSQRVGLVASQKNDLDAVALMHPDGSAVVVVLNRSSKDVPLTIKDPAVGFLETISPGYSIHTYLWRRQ
How it was run: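 Normal human glucocerebrosidase (0.2 nM final) was assayed with resorufin β-D-glucopyranoside (30 uM final) in 50mM citric acid/KH2PO4, 10mM sodium taurocholate, 0.01% tween-20, pH 5.9. Compounds were titrated; fluorescence (Ex 548, Em 600) read after 20 min at RT.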
Potency means the concentration at half of the fitted maximal effect.

Potency, inactive:
Cn1c(=O)n(C)c2cc(S(=O)(=O)N3CCCc4ccccc43)ccc21 > 76.9 µM
Cc1cc(C)c2oc(-c3ccc(Cl)c(NC(=O)c4ccc(C#N)cc4F)c3)nc2c1 > 76.9 µM
Cc1ccc(S(=O)(=O)NCCNC(=O)CN2CCCC2)cc1 > 76.9 µM
O=C(O)c1cc(-c2ccccc2Cl)n[nH]1 > 76.9 µM
CSc1nnc(-c2cc3ccccc3cc2O)n1C > 76.9 µM
O=C(CN1C(=O)C2C3C=CC(C3)C2C1=O)Nc1cccc2c1CCCC2 (stereo unspecified) > 76.9 µM
O=C(Cc1ccc(F)cc1)N(c1ccccc1)C1C=CS(=O)(=O)C1 (stereo unspecified) > 76.9 µM
CC(C)(CNC(=O)c1cc2ccccc2o1)N1CCOCC1 > 76.9 µM
C=CCSc1nc2c(c(=O)n(C)c(=O)n2C)n1CC > 76.9 µM
Cc1ccc(-c2nnc(CSc3nnc(C)s3)o2)cc1 > 76.9 µM
O=C(Nc1cc(Cl)ccc1O)C1CCCO1 (stereo unspecified) > 76.9 µM
Cc1c(C2N3CC4(C)CN2CC(C)(C3)C4=O)c2ccccc2n1C (stereo unspecified) > 76.9 µM
CC1CCN(S(=O)(=O)c2ccc(Br)s2)CC1 > 76.9 µM
COC(=O)c1ccc(Cl)c(NC(=O)CN2CCOCC2)c1 > 76.9 µM
COc1cccc(-n2nnc3c(=O)n(CC(=O)N4CCCc5ccccc54)cnc32)c1 > 76.9 µM
COc1cccc(NC(=O)CSc2nncn2N)c1 > 76.9 µM
CCN(C(=O)c1cn(C)c(=O)c2cc(OC)c(OC)cc12)c1cc(C)ccc1C > 76.9 µM
O=C1CC(c2ccccc2)Cc2nc(N3CCc4ccccc43)ncc21 (stereo unspecified) > 76.9 µM
O=C(NCCc1ccncc1)Nc1ccccc1Cl > 76.9 µM
COc1ccc(Cl)cc1NC(=O)c1ocnc1C > 76.9 µM
CCN(CC)S(=O)(=O)c1cccc(C(=O)NC(C(=O)NC2=NCCS2)C(C)C)c1 (stereo unspecified) > 76.9 µM
O=S(=O)(c1ccc(Cl)c(F)c1)N1CCC(c2nc(-c3ccncc3)no2)CC1 > 76.9 µM
Nc1nnc(Cc2c[nH]c3ccccc23)s1 > 76.9 µM
Cn1c(Cc2ccccc2)nnc1SCC(=O)c1ccc(Br)s1 > 76.9 µM
Cc1cccc(OCCOC(=O)C2CCN(S(=O)(=O)c3cccs3)CC2)c1 > 76.9 µM
CCN(CCCNC(=O)CCCCn1c(=O)[nH]c2ccccc2c1=O)c1ccccc1 > 76.9 µM
CCOC(=O)c1nc(-c2ccccc2)oc1N(C)C > 76.9 µM
COc1ccccc1C1=Nn2c(nnc2C2CCCCC2)SC1 > 76.9 µM
C=CCSc1nc2c(c(=O)[nH]c(=O)n2C)n1CC > 76.9 µM
CCC(=O)c1cc(F)c(N2CCN(C(=O)Cc3ccccc3)CC2)cc1C > 76.9 µM
COc1cc(-c2nc(-c3ccc(C)nc3OC)no2)cc(OC)c1OC > 76.9 µM
CCCCn1cnc2c1c(=O)n(CC(=O)c1cc(C)n(C)c1C)c(=O)n2CC(C)C > 76.9 µM
Cc1cc(=O)oc2cc3c(cc12)OCCO3 > 76.9 µM
CCn1c2ccccc2c2cc(NC(=O)COC(=O)C3CCC(=O)N3)ccc21 (stereo unspecified) > 76.9 µM
Cc1ccc(S(=O)(=O)N2CCOCC2)cc1C(=O)NC1CCCCC1 > 76.9 µM
CCOc1ccccc1C(=O)Nc1ccc(S(=O)(=O)N2CCOCC2)cc1 > 76.9 µM
Cn1c(=O)cc(SCC(=O)Nc2cccnc2)c2ccccc21 > 76.9 µM
O=C(C1CC1)N1CCc2cc(S(=O)(=O)N3CCOCC3)ccc21 > 76.9 µM
CCOC(=O)CCc1nc2ccccc2[nH]1 > 76.9 µM
CC1(C)Cc2nc3n[nH]c(N)c3cc2CO1 > 76.9 µM
CC12CCC(C(=O)N(c3ccccn3)c3ccccn3)(OC1=O)C2(C)C (stereo unspecified) > 76.9 µM
O=C(NCCCn1ccnc1)c1ccco1 > 76.9 µM
CCOC(=O)C(C)(C)Sc1ncnc2nc[nH]c12 > 76.9 µM
O=C(COc1ccccc1)N(Cc1ccco1)c1ccc(O)cc1 > 76.9 µM
CCCC(=O)N1CC2(C)CN(C(=O)CCC)CC(CCC)(C1)C2=O > 76.9 µM
O=C(CSc1nnc(Cc2ccccc2)o1)N1CCc2ccccc21 > 76.9 µM
